As usually defined, the IC50 is the midpoint of a concentration-inhibition curve.

Where only a bound is given, the exact number is not on record here.

The results in this text go back to US9763922B2 (priority 2014, dated 2017).

The test system of this test is MYC. Description: cells. As to conditions: Homo sapiens, MV4-11, 4 h, read-out: Myc IC50 (μM).

For `CC(=O)N1CCc2c(c(N3CCc4ccc(-c5nn[nH]n5)cc43)nn2C)C1` [Example 204, 1-(3-(6-(2H-tetrazol-5-yl)indolin-1-yl)-1-methyl-6,7-dihydro-1H-pyrazolo[4,3-c]pyridin-5(4H)-yl)ethanone], the concentration for half-maximal inhibition (IC50) is above 20 µM.

With `CC(=O)N1CCc2c(c(N3CCc4c(Cl)cc(-c5cnn(C)c5)cc43)nn2C2CCOC2)C1` (centres unmarked) [Example 207, 1-[3-[4-chloro-6-(1-methylpyrazol-4-yl)indolin-1-yl]-1-tetrahydrofuran-3-yl-6,7-dihydro-4H-pyrazolo[4,3-c]pyridin-5-yl]ethanone], the IC50 was 1.22 µM.

Consider `CC(=O)N1CCc2c(c(N3CCc4c(F)cc(-c5cnn(C)c5)cc43)nn2C2CCOC2)C1` (centres unmarked) [Example 209, 1-[3-[4-fluoro-6-(1-methylpyrazol-4-yl)indolin-1-yl]-1-tetrahydrofuran-3-yl-6,7-dihydro-4H-pyrazolo[4,3-c]pyridin-5-yl]ethanone], for which the IC50 was found to be 3.36 µM.

As for `CC(=O)N1CCc2c(c(N3CCc4cc(F)c(-c5cnn(C)c5)cc43)nn2C2CCOC2)C1` (centres unmarked) [Example 210, 1-[3-[5-fluoro-6-(1-methylpyrazol-4-yl)indolin-1-yl]-1-tetrahydrofuran-3-yl-6,7-dihydro-4H-pyrazolo[4,3-c]pyridin-5-yl]ethanone], the half-inhibitory concentration (IC50) turned out to be 0.564 µM.

Regarding `CC(=O)N1CCc2c(c(N3CCc4ccc(C(=O)O)cc43)nn2C)C1` [Example 211, 1-(5-acetyl-1-methyl-4,5,6,7-tetrahydro-1H-pyrazolo[4,3-c]pyridin-3-yl)indoline-6-carboxylic Acid], the IC50 is above 20 µM.

`COC(=O)c1ccc2c(c1)N(c1nn(C)c3c1CN(C(C)=O)CC3)CC2` [Example 212, methyl 1-(5-acetyl-1-methyl-6,7-dihydro-4H-pyrazolo[4,3-c]pyridin-3-yl)indoline-6-carboxylate]: the 50% inhibitory concentration (IC50) came to 4.5 µM.

Consider `CC(=O)N1CCc2c(c(N3C[C@H](CC#N)c4cc(-c5cnn(C)c5)ccc43)nn2C2COC2)C1` [Example 215, (R)-2-[1-[5-acetyl-1-(oxetan-3-yl)-6,7-dihydro-4H-pyrazolo[4,3-c]pyridin-3-yl]-5-(1-methylpyrazol-4-yl)indolin-3-yl]acetonitrile], for which the IC50 was determined as 7.65 µM.

As for `CC(=O)N1CCc2c(c(N3CCc4c3ccc(-c3cnn(C)c3)c4F)nn2C)C1` [Example 216, 1-[3-[4-fluoro-5-(1-methylpyrazol-4-yl)indolin-1-yl]-1-methyl-6,7-dihydro-4H-pyrazolo[4,3-c]pyridin-5-yl]ethanone], the concentration for half-maximal inhibition (IC50) was found to be 1.28 µM.

`CC(=O)N1CCc2c(c(N3CCc4cc(-c5cnn(C)c5)cc(F)c43)nn2C)C1` [Example 217, 1-[3-[7-fluoro-5-(1-methylpyrazol-4-yl)indolin-1-yl]-1-methyl-6,7-dihydro-4H-pyrazolo[4,3-c]pyridin-5-yl]ethanone]: the IC50 stood at 0.395 µM.

Turning to `CC(=O)N1CCc2c(c(N3CCc4cc(-c5cnn(C)c5)c(C(F)F)cc43)nn2C2COC2)C1` [Example 218, 1-[3-[6-(difluoromethyl)-5-(1-methylpyrazol-4-yl)indolin-1-yl]-1-(oxetan-3-yl)-6,7-dihydro-4H-pyrazolo[4,3-c]pyridin-5-yl]ethanone], the IC50 was determined as 0.551 µM.

For `CC(=O)N1CCc2c(c(Nc3cccc(C(=O)NC(C)C)c3)nn2CC2CC2)C1` [Example 218, 1-[3-[6-(difluoromethyl)-5-(1-methylpyrazol-4-yl)indolin-1-yl]-1-(oxetan-3-yl)-6,7-dihydro-4H-pyrazolo[4,3-c]pyridin-5-yl]ethanone], the IC50 came out at 0.5 µM.

Consider `CC(=O)N1CCc2c(c(N3CCc4cc(-c5cnn(C)c5)c(C#N)cc43)nn2C2CCOCC2)C1` [Example 219, 1-(5-acetyl-1-tetrahydropyran-4-yl-6,7-dihydro-4H-pyrazolo[4,3-c]pyridin-3-yl)-5-(1-methylpyrazol-4-yl)indoline-6-carbonitrile], for which the IC50 is 0.192 µM.

Consider `CNC(=O)c1cccc(Nc2nn(CC3CC3)c3c2CN(C(C)=O)CC3)c1` [Example 219, 1-(5-acetyl-1-tetrahydropyran-4-yl-6,7-dihydro-4H-pyrazolo[4,3-c]pyridin-3-yl)-5-(1-methylpyrazol-4-yl)indoline-6-carbonitrile], for which the IC50 amounted to 0.79 µM.

For `CC(=O)N1CCc2c(c(N3CCc4c3ccc(-c3cnn(C)c3)c4CO)nn2C2CCOC2)C1` (centres unmarked) [Example 220, 1-[3-[4-(hydroxymethyl)-5-(1-methylpyrazol-4-yl)indolin-1-yl]-1-tetrahydrofuran-3-yl-6,7-dihydro-4H-pyrazolo[4,3-c]pyridin-5-yl]ethanone], the IC50 is 3.84 µM.

On to `CC(=O)N1CCc2c(c(Nc3cccc(C(=O)N(C)C)c3)nn2CC2CC2)C1` [Example 220, 1-[3-[4-(hydroxymethyl)-5-(1-methylpyrazol-4-yl)indolin-1-yl]-1-tetrahydrofuran-3-yl-6,7-dihydro-4H-pyrazolo[4,3-c]pyridin-5-yl]ethanone], for which the concentration for half-maximal inhibition (IC50) came out at 1.72 µM.

`CC(=O)N1CCc2c(c(N(C)c3ccc(-c4cn(C)nc4C(F)(F)F)cc3)nn2C)C1` [Example 224, 1-[1-methyl-3-[N-methyl-4-[1-methyl-3-(trifluoromethyl)pyrazol-4-yl]anilino]-6,7-dihydro-4H-pyrazolo[4,3-c]pyridin-5-yl]ethanone]: the IC50 was above 4 µM.

As to `CC(=O)N1CCc2c(c(N(C)c3ccc(-c4cnn(C)c4)cc3)nn2CC2CC2)C1` [Example 225, 1-[1-(cyclopropylmethyl)-3-[N-methyl-4-(1-methylpyrazol-4-yl)anilino]-6,7-dihydro-4H-pyrazolo[4,3-c]pyridin-5-yl]ethanone], the IC50 came out at 0.535 µM.

With `CC(=O)N1CCc2c(c(N(C)c3ccc(-c4cn(C)nc4C(F)(F)F)cc3)nn2C2CCOC2)C1` (centres unmarked) [Example 226, 1-[3-[N-methyl-4-[1-methyl-3-(trifluoromethyl)pyrazol-4-yl]anilino]-1-tetrahydrofuran-3-yl-6,7-dihydro-4H-pyrazolo[4,3-c]pyridin-5-yl]ethanone], the IC50 is 0.514 µM.

As to `CC(=O)N1CCc2c(c(N(C)c3ccc(-c4cnn(C)c4)cc3)nn2C)C1` [Example 228, 1-[1-methyl-3-[N-methyl-4-(1-methylpyrazol-4-yl)anilino]-6,7-dihydro-4H-pyrazolo[4,3-c]pyridin-5-yl]ethanone], the half-inhibitory concentration (IC50) is above 4 µM.

Regarding `CC(=O)N1CCc2c(c(N3CCCc4cc(-c5cnn(C)c5)ncc43)nn2C2CCOCC2)C1` [Example 230, 1-(3-(6-(1-methyl-1H-pyrazol-4-yl)-3,4-dihydro-1,7-naphthyridin-1 (2H)-yl)-1-(tetrahydro-2H-pyran-4-yl)-6,7-dihydro-1H-pyrazolo[4,3-c]pyridin-5(4H)-yl)ethanone], the IC50 was 0.236 µM.

Consider `CC(=O)N1CCc2c(c(N3CC[C@H](C)c4cc(-c5cnn(C)c5)c(C(F)F)cc43)nn2C2CCOCC2)C1` [Example 238, (S)-1-[3-[7-(difluoromethyl)-4-methyl-6-(1-methylpyrazol-4-yl)-3,4-dihydro-2H-quinolin-1-yl]-1-tetrahydropyran-4-yl-6,7-dihydro-4H-pyrazolo[4,3-c]pyridin-5-yl]ethanone], for which the IC50 is 0.028 µM.

For `CC(=O)N1CCc2c(c(N3CC[C@@H](C)c4cc(-c5cnn(C)c5)c(C(F)F)cc43)nn2C2CCOCC2)C1` [Example 239, (R)-1-[3-[7-(difluoromethyl)-4-methyl-6-(1-methylpyrazol-4-yl)-3,4-dihydro-2H-quinolin-1-yl]-1-tetrahydropyran-4-yl-6,7-dihydro-4H-pyrazolo[4,3-c]pyridin-5-yl]ethanone], the half-maximal inhibitory concentration (IC50) stood at 0.176 µM.

As for `CC(=O)N1CCc2c(c(N3C[C@@H](C)Cc4cc(-c5cnn(C)c5)c(C(F)F)cc43)nn2C2CCOCC2)C1` [Example 240, (S)-1-[3-[7-(difluoromethyl)-3-methyl-6-(1-methylpyrazol-4-yl)-3,4-dihydro-2H-quinolin-1-yl]-1-tetrahydropyran-4-yl-6,7-dihydro-4H-pyrazolo[4,3-c]pyridin-5-yl]ethanone], the IC50 came to 0.035 µM.

`CC(=O)N1CCc2c(c(N3C[C@H](C)Cc4cc(-c5cnn(C)c5)c(C(F)F)cc43)nn2C2CCOCC2)C1` [Example 241, (R)-1-[3-[7-(difluoromethyl)-3-methyl-6-(1-methylpyrazol-4-yl)-3,4-dihydro-2H-quinolin-1-yl]-1-tetrahydropyran-4-yl-6,7-dihydro-4H-pyrazolo[4,3-c]pyridin-5-yl]ethanone]: the concentration for half-maximal inhibition (IC50) was 0.02 µM.

For the compound `CCC(=O)N1CCc2c(c(N3CCCc4cc(-c5cnn(C)c5)c(C(F)F)cc43)nn2C2CCOCC2)C1` [Example 242, 1-[3-[7-(difluoromethyl)-6-(1-methylpyrazol-4-yl)-3,4-dihydro-2H-quinolin-1-yl]-1-tetrahydropyran-4-yl-6,7-dihydro-4H-pyrazolo[4,3-c]pyridin-5-yl]propan-1-one], the half-maximal inhibitory concentration (IC50) is 0.112 µM.

For the compound `COc1cc(-c2cc3c(cc2C(F)F)N(c2nn(C4CCOCC4)c4c2CN(C(C)=O)CC4)CCC3)ccn1` [Example 243, 1-[3-[7-(difluoromethyl)-6-(2-methoxy-4-pyridyl)-3,4-dihydro-2H-quinolin-1-yl]-1-tetrahydropyran-4-yl-6,7-dihydro-4H-pyrazolo[4,3-c]pyridin-5-yl]ethanone], the concentration for half-maximal inhibition (IC50) is 0.016 µM.

Consider `CC(=O)N1CCc2c(c(N3CCc4cc(-c5cnn(C)c5C)c(C(F)F)cc43)nn2C2CCOCC2)C1` [Example 244, 1-[3-[6-(difluoromethyl)-5-(1,5-dimethylpyrazol-4-yl)indolin-1-yl]-1-tetrahydropyran-4-yl-6,7-dihydro-4H-pyrazolo[4,3-c]pyridin-5-yl]ethanone], for which the IC50 was 0.086 µM.

Regarding `CC(=O)N1CCc2c(c(Nc3ccc(-c4cnn(C)c4C)cc3F)nn2CC2COC2)C1` [Example 245, 1-[3-[6-(1-methylpyrazol-4-yl)-7-(trifluoromethyl)-3,4-dihydro-2H-quinolin-1-yl]-1-tetrahydropyran-4-yl-6,7-dihydro-4H-pyrazolo[4,3-c]pyridin-5-yl]ethanone], the concentration for half-maximal inhibition (IC50) is 3.47 µM.

On to `CC(=O)N1CCc2c(c(N3CCCc4cc(-c5cnn(C)c5)c(C)cc43)nn2C2CCOCC2)C1` [Example 246, 1-[3-[7-methyl-6-(1-methylpyrazol-4-yl)-3,4-dihydro-2H-quinolin-1-yl]-1-tetrahydropyran-4-yl-6,7-dihydro-4H-pyrazolo[4,3-c]pyridin-5-yl]ethanone], for which the IC50 came to 0.094 µM.
